Out of some 310,000 compounds screened, about 2,200 (0.71%) showed an effect of 50% or more. The effect is printed as a negative number. This is one part of the list.
Target: human ether-à-go-go-related gene (hERG) potassium channel (human, UniProt Q12809)
Assay: primary screen, population patch clamp on CHO cells stably expressing hERG

human ether-à-go-go-related gene (hERG) potassium channel, sequence (Q12809 whole entry, looked up): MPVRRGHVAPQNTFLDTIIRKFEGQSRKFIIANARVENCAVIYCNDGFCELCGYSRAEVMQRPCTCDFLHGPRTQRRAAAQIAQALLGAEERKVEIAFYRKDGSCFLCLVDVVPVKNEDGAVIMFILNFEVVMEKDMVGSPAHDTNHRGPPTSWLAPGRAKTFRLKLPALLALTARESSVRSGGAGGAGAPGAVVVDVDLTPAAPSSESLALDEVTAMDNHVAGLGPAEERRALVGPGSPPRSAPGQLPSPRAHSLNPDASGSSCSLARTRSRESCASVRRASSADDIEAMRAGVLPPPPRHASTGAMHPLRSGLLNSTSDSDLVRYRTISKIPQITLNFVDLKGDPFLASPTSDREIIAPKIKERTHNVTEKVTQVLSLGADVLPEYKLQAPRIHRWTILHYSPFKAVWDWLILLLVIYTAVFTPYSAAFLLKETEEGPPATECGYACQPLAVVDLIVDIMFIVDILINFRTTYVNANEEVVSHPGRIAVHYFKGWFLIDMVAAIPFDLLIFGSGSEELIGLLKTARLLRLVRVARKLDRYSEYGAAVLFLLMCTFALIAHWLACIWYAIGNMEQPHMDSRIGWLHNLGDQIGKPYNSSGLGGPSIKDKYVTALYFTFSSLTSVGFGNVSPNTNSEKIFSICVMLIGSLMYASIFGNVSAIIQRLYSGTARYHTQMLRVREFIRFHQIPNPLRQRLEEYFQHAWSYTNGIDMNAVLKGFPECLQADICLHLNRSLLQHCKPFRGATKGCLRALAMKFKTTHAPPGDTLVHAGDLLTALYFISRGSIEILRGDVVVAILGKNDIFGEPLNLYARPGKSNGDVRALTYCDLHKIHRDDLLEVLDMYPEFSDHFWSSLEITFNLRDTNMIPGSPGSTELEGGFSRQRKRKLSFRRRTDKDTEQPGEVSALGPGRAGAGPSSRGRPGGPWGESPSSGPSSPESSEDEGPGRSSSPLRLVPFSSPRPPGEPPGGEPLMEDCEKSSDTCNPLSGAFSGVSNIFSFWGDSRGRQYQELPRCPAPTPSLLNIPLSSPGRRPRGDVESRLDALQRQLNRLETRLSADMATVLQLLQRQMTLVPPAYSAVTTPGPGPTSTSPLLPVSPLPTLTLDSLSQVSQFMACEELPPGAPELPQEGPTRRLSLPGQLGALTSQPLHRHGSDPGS

Row | Structure (SMILES) | hERG current change (%, negative = inhibition) at 1uM [%]
1 | COc1cc2c(cc1OC)CN(C(=O)CSc1nnc(C)s1)CC2 | 15.1
2 | CC(OC(=O)C1CC1)C(=O)Nc1ccc([N+](=O)[O-])cc1Cl (centres unmarked) | 13.7
3 | CC12CCC(C(=O)Nc3cc(Cl)ccc3Cl)(C/C1=N\O)C2(C)C (centres unmarked) | -1.4
4 | CCOC(=O)c1sc(NC(=O)COc2ccc3c(c2)OCO3)nc1C | 6.71
5 | O=C(CCS(=O)(=O)Cc1cccc(Cl)c1)NCCc1ccccc1 | 9.93
6 | CCOc1cc(/C=N/NC(=O)COc2ccc(C)cc2)ccc1OC(=O)c1cccs1 | 8.29
7 | CCc1ccccc1NC(=O)CN(C)C(=O)CSc1nnc(Nc2cccc(C)c2C)s1 | 8.86
8 | NNC(=O)COc1ccccc1F | 8.73
9 | COc1ccc(COC(=O)N/N=C(\C)CC(=O)Nc2ccc(Cl)cn2)cc1 | 0.667
10 | Cc1ccccc1NS(=O)(=O)c1ccc(NS(=O)(=O)c2cccs2)cc1 | 11.5
11 | CCCCCCCN(C(=O)CCl)c1ccccc1C | 2.76
12 | Cc1ccc2c(C)nc(Nc3nc(CSc4nc5ccccc5[nH]4)cc(=O)[nH]3)nc2c1 | -2.23
13 | O=C(CSc1ccccn1)N/N=C/c1c[nH]c2ccccc12 | 14.6
14 | CCOC(=O)c1nn(-c2ccc(F)cc2)c2nc(Nc3ccccc3)cc(=O)n12 | 14.8
15 | COc1ccc(-c2csc(NC(=O)c3ccccc3Br)c2C(=O)O)cc1 | 14.8
16 | COc1ccccc1CN(CC(=O)NCC1CCCO1)C(=O)CNS(=O)(=O)c1ccc(C)cc1 (centres unmarked) | -0.52
17 | CCOC(=O)N1CCC(N2C(=O)c3ccccc3C2Nc2ccc(S(=O)(=O)N3CCOCC3)cc2)CC1 (centres unmarked) | 10.1
18 | CCOC(=O)c1sc(N)c(C#N)c1CSc1nnc(C2CCCCC2)n1N | 6.28
19 | COc1ccc(-c2nc(SC(C)C(=O)NCC3CCCO3)n[nH]2)cc1 (centres unmarked) | 0.826
20 | N#Cc1ccsc1NC(=O)CN(Cc1ccccc1)Cc1ccccc1 | 18.2
21 | COCCN(C(=O)CSc1nc2ccc(Cl)cc2[nH]1)c1c(N)n(Cc2ccccc2)c(=O)[nH]c1=O | 0.101
22 | O=C(CC(C(=O)O)P(=O)(c1ccccc1)c1ccccc1)c1ccccc1 (centres unmarked) | 15

Row | Structure (SMILES) | hERG current change (%, negative = inhibition) at 1uM [%]
23 | COc1ccc(OC)c(NC(=O)CC2Oc3ccccc3NC2=O)c1 (centres unmarked) | 14.1
24 | CC(=O)c1ccc(Cc2ccccc2)cc1 | 5.62
25 | CC1(C)CC(NC(=O)COc2ccccc2Cl)CC(C)(C)N1 | 0.0789
26 | CCCCN1C(=O)c2ccc(C(=O)OCC(=O)N3CCN(c4ccccc4)CC3)cc2C1=O | 3.72
27 | CC(=O)Oc1ccc2oc(=O)c3c(c2c1)CCCN3C(=O)CN1CCN(c2ncccn2)CC1 | 8.16
28 | Cc1nnsc1C(=O)NNC(=O)c1ccc(C(F)(F)F)cc1 | 15.2
29 | COC(=O)c1c(C)[nH]c(C(=O)C(C)OC(=O)c2ccco2)c1C (centres unmarked) | 10.3
30 | O=C1c2ccccc2NC(c2c(Cl)cccc2Cl)N1Cc1ccccc1 (centres unmarked) | 5.41
31 | Cc1cccc(-c2nc(C)cc(=O)[nH]2)c1 | 15.7
32 | CC(C)n1cnc2c(N(C)c3ccccc3)nc(N(CCN(C)C)Cc3ccccc3)nc21 | -58.5
33 | COC(=O)c1nnn(-c2nonc2N)c1CSc1ccccn1 | 4.62
34 | Cn1c(=O)c(C(=O)COC(=O)c2cc(C(F)(F)F)nc3c(C(F)(F)F)cccc23)c(N)n(CC2CC2)c1=O | -1.07
35 | CCOC(=O)c1nnn(-c2nc(OC)nc(N3CCCC3)n2)c1-c1ccccc1 | 16.7
36 | COc1cc(OC)c(/C=C2\SC(=O)N(CC(=O)Nc3ccccc3F)C2=O)c(OC)c1 | 13.7
37 | CN(C)/C=C/C(=O)c1ccc(S(=O)c2ccccc2)cc1 (centres unmarked) | 22
38 | COc1cccc(CNC(=O)CCC2CCCN(C(=O)c3csc(C(C)C)n3)C2)c1 (centres unmarked) | 8.69
39 | CC1Cc2ccccc2N1C(=O)COc1cccc(-n2cnnn2)c1 (centres unmarked) | 9.52
40 | CC(=O)c1cccc(S(=O)(=O)Nc2cccc(S(=O)(=O)NC3=NCCC3)c2)c1 | 15.3
41 | Cc1cccc(N)c1SC1CCCCC1O (centres unmarked) | 2.33
42 | Cc1nn(C)c(C)c1S(=O)(=O)N1CCCC(C(=O)NC2CCCCCC2)C1 (centres unmarked) | 12.5
43 | O=C(/C=C/c1ccc2c(c1)OCO2)N1CCOCC1 | 6.84
44 | O=C(Nc1nnc(COc2ccc(Cl)cc2)s1)C1CCCO1 (centres unmarked) | 5.56

Row | Structure (SMILES) | hERG current change (%, negative = inhibition) at 1uM [%]
45 | Cc1ccc(N(C(=O)c2csnn2)C(C(=O)NC2CCCC2)c2ccccn2)cc1 (centres unmarked) | 13.7
46 | CC[C@H](C)[C@@H](CN[C@H](CCCCNC)CNC)NCC1CCCC1 | 17.5
47 | COc1ccc(S(=O)(=O)Nc2ccc(N3CCOCC3)cc2)cc1 | 11.4
48 | CCCc1cc(=O)oc2cc(OCC(=O)NCC3CCC(C(=O)O)CC3)ccc12 (centres unmarked) | -6.33
49 | CC1CC(C)CN(CCCn2c(=S)[nH]c3ccccc3c2=O)C1 (centres unmarked) | -34
50 | COc1ccc(CC(=O)Nc2ccc(S(=O)(=O)Nc3cc(C)on3)cc2)cc1OC | 10.3
51 | CCC(=O)Nc1cccc(-c2nc3ccccc3o2)c1 | 14.3
52 | O=C(NC1CC1)C1=C[C@@H](c2csc3ccccc23)C[C@@H](OCc2ccc(CO)cc2)O1 | 11.3
53 | CC(NC(=O)c1cccc(S(=O)(=O)N2CCN(Cc3ccccc3)CC2)c1)c1ccc(Br)cc1 (centres unmarked) | -10.9
54 | Cc1ccc(CNC(=O)c2cc3c(s2)CN(Cc2ccccc2)C3)cc1.Cl | 10.6
55 | O=C1CSCC(=O)N1Cc1ccc(Cl)cc1Cl | 12
56 | Cc1c(Cc2ccccc2)sc(NC(=O)/C=C/c2cccc3ccccc23)c1C(N)=O | 10.9
57 | O=C(c1ccc(NC2=NC3CS(=O)(=O)CC3S2)cc1)N1CCN(c2ccc([N+](=O)[O-])cc2)CC1 (centres unmarked) | 4.27
58 | CCOC(=O)c1c(NC(=O)C2C3CCC(O3)C2C(=O)O)sc(C)c1-c1ccc(C)cc1 (centres unmarked) | 5.35
59 | CC(C)CN(Cc1c(O)ccc2c(=O)c(-c3ccccc3)coc12)CC(C)C.Cl | 12.3
60 | COc1cc(C(=O)NCC(=O)N/N=C/c2ccccn2)cc(OC)c1OC | 8.11
61 | O=C(O)C1=C(Nc2ccccc2)OCC1=O | 14.9
62 | CCOc1cc(C(=O)NC(=S)Nc2nc(C)cc(C)n2)cc(OCC)c1OCC | 8.58
63 | O=C(Nc1ccc(N2CCOCC2)cc1)c1ccc(COc2ccccc2)cc1 | 13
64 | CCOC(=O)c1cc(S(=O)(=O)NCC2CCN(Cc3cccc(C)c3)CC2)cn1C | 8.79
65 | CC(=O)C1C(c2ccc(F)cc2)NC(=O)NC1(O)C(F)(F)F (centres unmarked) | 2.82
66 | CCOc1ccc(S(=O)(=O)Nc2ccc(C(=O)N3CCCC3)cc2)cc1C(N)=O | 12.1

Row | Structure (SMILES) | hERG current change (%, negative = inhibition) at 1uM [%]
67 | CCOc1ccc(Br)cc1S(=O)(=O)Nc1ccc(N2CCOCC2)cc1 | 9.4
68 | CSc1ccc(-c2sc(Nc3cccc4ccccc34)n[n+]2-c2ccccc2)cc1.[Cl-] | 17.1
69 | COc1ccc(C(=O)Cn2nnc(-c3ccccc3F)n2)cc1 | 9.91
70 | CC1CCCCN1C(=O)C(=O)c1cn(CC(=O)N2CCCCCC2)c2ccccc12 (centres unmarked) | 9.15
71 | Nc1nc(CSCc2ccccc2)nc(N2CCOCC2)n1 | -4.95
72 | O=C(Nc1ccccc1Cl)C1CC(=O)n2c(nc3ccccc32)N1 (centres unmarked) | 17.1
73 | Cc1ccc(N2C(=O)N(CC(=O)NC(N)=O)C(=O)C2C)cc1 (centres unmarked) | 4.51
74 | COC(=O)C1=C(C(=O)OC)SC(=C2C(=S)C(C)(C)N(C(=O)CC(C)C)c3ccccc32)S1 | 1.9
75 | O=[N+]([O-])c1ccc(NCCCNS(=O)(=O)c2ccccc2)c(Cl)c1 | 10.1
76 | CSc1sc(C)cc1/C=N/O | 14.3
77 | CCN1C(=O)/C(=C\c2cccs2)C(C(=O)OC)=C1C | 16.2
78 | C=CCOc1ccc(CN(C)C(=O)c2ccc(CNS(=O)(=O)c3ccc(C)c(C)c3)cc2)cc1 | 5.4
79 | COCCNC(=O)c1cn(CCOC)c(=O)c2c1c1ccccc1n2C | 8.33
80 | Cc1c(C(=O)OCC(=O)N2C(C)CCCC2C)oc2ccccc12 (centres unmarked) | 8.78
81 | Cc1cccc(OCc2ccc(C(=O)Nc3ccc(F)cc3)cc2)c1 | 20
82 | CCOCCCNC(=S)NCCCNc1nc2cc3c(cc2cc1C#N)OCO3 | 13.4
83 | O=C(NCc1cccs1)C1(S(=O)(=O)c2ccccc2)CC=CC1 | 3.93
84 | O=C(c1cc(C(=O)NCc2ccc(Cl)cc2)c(=O)n(Cc2ccc(Cl)cc2)c1)c1cc(F)ccc1O | 10.5
85 | COc1ccc(C2C3=C(CCCC3=O)Nc3n[nH]c(C)c32)cc1OC (centres unmarked) | 9.56
86 | Cc1ccc(Cn2c(=S)[nH]c3ccc(N4CCOCC4)cc3c2=O)o1 | 0.14

— paper PMC4336329 (PLoS ONE, 2015)
